Measured values from the RNAGym collection of RNA variant scans (doi:10.1073/pnas.2313332121).
Variants at the background level are over-represented here.

B1: TPR 5TU (parent)
chain: GGAUCUUCUCGAUCUAACAAAAAAGACAAAUCUGCCACAAAGCUUGAGAGCAUCUUCGGAUGCAGAGGCGGCAGCCUUCGGUGGCGCGAUAGCGCCAACGUUCUCAACUAUGACACGCAAAACGCGUGCUCCGUUGAAUGGAGUUUAUCAUG

Variants of: B1
Test: polymerase ribozyme fitness, log enrichment relative to wild type (log ratio); higher = more active; in vitro selection for triplet polymerase activity
Method in brief: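 In triplicate, a single round of in vitro selection was run on each mutant library, PCR-built and transcribed, covering one subunit of a heterodimeric triplet polymerase ribozyme. Frozen incubation at −7 °C followed annealing with a biotinylated primer, partner subunit and triplets, and extended constructs were then gel-excised, streptavidin-captured and taken through RT-PCR. Fitness is the logarithm of genotype enrichment over wild-type enrichment, from inverse-variance-weighted replicate averages of Illumina-sequenced inputs and outputs. […] only genotypes with ≥10 input reads and ≥1 read per output were kept.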

Polymerase ribozyme fitness (log ratio), -2.21:
U7G C54U G92U

Polymerase ribozyme fitness (log ratio), -3.93:
C8G A17G A21U A98G

Polymerase ribozyme fitness (log ratio), -3.45:
C8A U53A

Polymerase ribozyme fitness (log ratio), -3.68:
C8A G92C

Polymerase ribozyme fitness (log ratio), -3.25:
U7G U15A G59C G124C G136A

Polymerase ribozyme fitness (log ratio), ≤ -4.2:
C8G A40C C54U G58U G84A
C8G A16U G67C G83U C116G G117A G124U
U7G A40C G58A G70A C76A C132U
U7G U44G U55G C99A
C8A U31G A66U G92U G100C C118A G152A
C8G C79U C85G
C8G C54U G71C C93U C95A A150G
C8G A12C U78C C93U C99A A115C
C8G A26C A64U A66C G88U A119G U148C
C8A C10G G50U C51G U56G C57G G62A G86A
C8A A26G G59U A89G C93G C95U C108U C132A
C8A A28G C75G G84C A120G
C8A C14U A37G C54U C85U
U7G C54G G81C U111G C132G U135G G136A
C8G A52G A66C G84C C85A G126U
U7G A49C G59C C85A C105G
C8A A40G U55A C96A G143C
C8A A21C A41G U77C G83C
U7G G34U A60U C93U A107U
C8G A39U C63U G68A G80U G86C A106G C118U
C8G A23U G83A
C8G G34U A73C C85G U148G
C8A U13G A21G A28G G68U G81A C118G G143U
C8G C14U A19C C75A G81A C85G C93U C118G
C8G A24G A52G U53A C57U G140U U148C
U7G C43U C93U U101G G143C A150C
C8A G34C U45A G50A U55A G74A A91G U102G G140C G141A
C8A A49C A119C A121U
C8A U9C C14U A29U G59C G62U C95U C116A
C8A A41C A66U C69A U77C G83C G126U U130G G141C G152C
U7G G25C U45A C51U C85A U134C U145C
C8G A16U A20U C79U C85U A115C
C8G A40C C76A A91G
C8G A24U A40C C69A G84A C103U C123A
C8G A29C C32G C51U G58C G94C
C8A C35G C51U G59A A73G C76A C85G A138U U151C
C8G C10A G62A G92U C108U
C8G C36U A66C G86C A138C
U7G C8U U56C G59A A64C G65C G71A C95U C99A G100C
C8A A26U C35U A40G G88C U144A
C8A A30C G59U G62C C85A
C8A U56A U77C G86U C103G A115U C125A G143U
U7G C14A C35A U56A A91G A97G A115G A138G
C8G A20U U78C G83A A110G G136A U145C
C8G A52C U55C G65A G83U C105U G143U
C8A C32G A47U C54G G92U
C8G A30C C75A G86U C118G
U7G C27A C93U A107G A150U
C8A U56A A66C G94A A98U
C8A C114G A142C
C8G G25C U53G C63U C108A
C8A C27A C76A C85G C118U
C8A U109G C116A
C8A C32A G62A U82G G143A
C8A U9A C85A C99G G136A
C8A C96G C99U A122U U151A
C8A A52G U61A C76U G124C
C8G C14G A41C G48A
C8G A21U G83A G140C
C8A U31G A37G G42A G83A
U7G C14U A52G U56C C76A G80C C105G C108G A122G G128A
C8G G25C U31A C95U G100C G141A A142U
U7G C75A C85G C95A
C8A A21C A47C C57U C79G G94C G100C U104G A113U G143C A150U
C8A C85G
C8A U77C G94U U135A U139C
C8G C18A G46C A60U G70A G94U G140U A150G
U7G U55A C85G A122G A138C
C8A C87G U111A C118U
U7G A47C A49U G86U C99U
C8A C72A G83A C87G A89U A115C U134A
C8A C54A G59U C93A G94A G117U G141U
C8G C75G G84U U102C
C8G A22U C85U C103U
C8G C43A C72A U90C G133U G143C
C8G A19C C54U
C8A C10G C18U A21U C54A C87U A120G
U7G C8G A73G A120C U127C
U7G A40U A41U U90G G143A
C8A C43U G68A G143C A150C
C8A U13A A24C A28U A91U C96G C103U C118G
C8G A29C G88C C96U C108A A142G
U7G G71U C76A C85U U90A C105U G117A
C8G A17U A52G G92A U130G C132G
C8A U15C G50U C75U G86U
C8G C43U U61G G84U A107C G117C U148G
U7G A41C G46U G100C A115U U135C G140C A147C
C8A G50U G74C G80A C85U U139C G141C
C8A A29U A40C G46A G67A G81A C85G A113C A137G
C8G A23U G83A G124C
C8G A16U A23U C57A A115C
U7G C10G C35A G48A
C8A C14G G65U G83C A89U
C8A U31C A41U G58A G71A C76U C125U A142G
U7G C36A
C8A G48C U55A
U7G G25A A41C U45A G50C C85G G136U
C8G C18A A24G G67C U102C A107U A142U
U7G U82G A115U G117U
C8A U9C A30U C87U C95U C129A
C8A A22C G25A C54G A60C C76G G80A G88U A89C
C8A A17G A73U U78G C87U
C8A C10G C18G A40U A47C G62C
C8G C32U C36A G50U C85G
C8G A52G G92C C96A U148A U151G
U7G G94A C96U A98U C114U G140U
C8A C35A G59A A66U C87G G94A
C8G A20U C32G A40G
C8A A26C C79G A89G G92A
C8G A20C G67C G68C A113U
U7G A64C A122G
C8G C10G U31G C38U A49C G65U G71U G83U C105G U145A
U7G G11A U56A G81A C87G
C8A A16G A29U A47U G71U C93A A106G G133U C149U
C8A A28U G68U C85U G100C C123U
C8G A17C U102G G141C
U7G C57U C76U C85A C96G U104G C105G G141C
C8G C14U U90G A106C G133C
C8G G25C C35A A60U G65C G71A C72U G81U G88C C93G C114G A115C A121G
C8G C27A A49G U53G G67C C96G U144A C149A
C8G C38G U44C G74U G88A A107G U146G
U7G G25U U31G C35U G42A C57G C76U C79A G117A A147C
C8G C10A A28U A39C G50A G67C G92U C108U
C8G A24U C32U C54G U61A G92U C99A
C8A C10A A12C C79A G83C C103A
C8A A22G A28G C93U A137U
U7G A22C C72G U90C
U7G G58U G59A C95U G140U
U7G A26G U31G G74A
U7G A26C G92U A97U
C8A A29C C32U U77G C93G A121U G136C
C8A A17U G67U A73G U78A A107U
C8A C14A A30U A49C A52G A106C
C8A A19C A22C C63U U78A C108U
U7G G58A C63G C85U C129G
C8A G50U G84A A97U U101G
C8A U44C C79G G86C G140U
U7G U53A U56A A91U
U7G G50C C87G C125U G133A G140A A142U
C8A G50A C76A C85G C108G G141C
U7G A22G C32U G59C U77G C114U U145A
U7G A21G U78G G80C G92U U127G G136C
C8A A17G A30G A41U C51U G71C U145C
U7G A40G A52C G65U A73G U82A C93G U134A U148G
U7G C75U G88U A115U A120C U134A
C8A U45G C51A A52C A73C A91U G94A A106G C118A
C8G A29U C95G G128U
C8A A26C C27A C38G
C8A A24U G58A U77A G83U G141A
C8A A30U C87U
C8G C32G A66G C116A C123A
C8G C54U G140U U144G
C8G C36U C114U A115G U135G A150C
C8G A22U C36A G42A G67A G80A G84C C116G
C8A G25U A39G A47G C63U U101G
C8G A29C G42C
C8A C18G C75A A142C
U7G A21G C57G U127G U130G C131U U135G U148A
C8A U56A C79U G84C G112A C131U U146A

Polymerase ribozyme fitness (log ratio), -4.06:
C8A U15G C95U A98G C149U A150U

Polymerase ribozyme fitness (log ratio), -2.6:
C8A C85U

Polymerase ribozyme fitness (log ratio), -3.95:
C8A U15G C18U G58C C96G
